# Test results: patent publication US20240294623A1
# B1: Ab6 (antibody)
# heavy: EVQLVESGGGLVQPGGSLRLSCTASGFTFSSFSMDWVRQAPGKGLEWVSYISPSADTIYYADSVKGRFTISRDNAKNTLYLQMNSLRAEDTAVYYCARGVLDYGDMLMPWGQGTLVTVSSASTKGPSVFPLAPCSRSTSESTAALGCLVKDYFPEPVTVSWNSGALTSGVHTFPAVLQSSGLYSLSSVVTVPSSSLGTKTYTCNVDHKPSNTKVDKRV[letters of human IgG4 Fc with S228P (EU numbers) not shown]
# light: DIQMTQSPSSLSASVGDRVTITCQASQDITNYLNWYQQKPGKAPKLLIYDASNLETGVPSRFSGSGSGTDFTFTISSLQPEDIATYYCQQADNHPPWTFGGGTKVEIKRTVAAPSVFIFPPSDEQLKSGTASVVCLLNNFYPREAKVQWKVDNALQSGNSQESVTEQDSKDSTYSLSSTLTLSKADYEKHKVYACEVTHQGLSSPVTKSFNRGEC
# Target: latent TGFβ1 from human, rat, and cynomolgus monkey
# Assay: cell-based or functional assay
binder,measurement,value
B1,"IC50, inhibition of latent TGFβ1 activation (LN229 transfectants with CAGA12 reporter cells)",1.02 to 1.11 nM
